Drawing on a collection of fitness landscapes (doi:10.1126/science.1257360), this text covers enrichment ratio for 153 variants.

Sequences and labels used below:
B1: PhoQ; a variant is named by its letters at X, in order, P23837 (parent)
chain: MKKLLRLFFPLSLRVRFLLATAAVVLVLSLAYGMVALIGYSVSFDKTTFRLLRGESNLFYTLAKWENNKLHVELPENIDKQSPTMTLIYDENGQLLWAQRDVPWLMKMIQPDWLKSNGFHEIEADVNDTSLLLSGDHSIQQQLQEVREDDDDAEMTHSVAVNVYPATSRMPKLTIVVVDTIPVELKSSYMVWSWFIYVLSANLLLVIPLLWVAAWWSLRPIEALAKEVRELEEHNRELLNPATTRELTSLVRNLNRLLKSERERYDKYRTTLTDLTHSLKTPLXXLQXXLRSLRSEKMSVSDAEPVMLEQISRISQQIGYYLHRASMRGGTLLSRELHPVAPLLDNLTSALNKVYQRKGVNISLDISPEISFVGEQNDFVEVMGNVLDNACKYCLEFVEISARQTDEHLYIVVEDDGPGIPLSKREVIFDRGQRVDTLRPGQGVGLAVAREITEQYEGKIVAGESMLGGARMEVIFGRQHSAPKDE

The other results are listed elsewhere or left out.

In the experiment the parent is B1. The experiment is described as follows: enrichment ratio after two sorts for PhoP signalling (ratio (wild type AVST 3.29)); higher = more functional. The note with it: with PhoP (E. coli).
For the variant PWTG, the enrichment ratio was at most 0.25.

With GTPM, the enrichment ratio was at most 0.25. Then GLIG, with at most 0.25. Then RWVL, with at most 0.25; and GDWH, with at most 0.25. Then HKFQ, with at most 0.25.

As for VEPL, the enrichment ratio was at most 0.25. On to GMNY, for which the enrichment ratio was at most 0.25. Then LLKY, with at most 0.25. Then HTYS, with at most 0.25. The same measure for VWSE: at most 0.25; for FYPT: at most 0.25. Turning to ASNL, the enrichment ratio is 4.93. For the variant IKRE, the enrichment ratio is at most 0.25.

WCKL: the enrichment ratio was at most 0.25. Then TFQH, with at most 0.25; and IFQK, with at most 0.25. The same measure for DFSW: at most 0.25; for NCQF: at most 0.25. Then DRYE, with at most 0.25; and MQTA, with at most 0.25; and AAVL, with 8.94.

For WNGF, the enrichment ratio is at most 0.25. Then MSTA, with at most 0.25; and QYVN, with at most 0.25. For KMGS, the enrichment ratio was at most 0.25. On to CLSN, for which the enrichment ratio was at most 0.25. The same measure for EPPF: at most 0.25. Then ATRA, with at most 0.25; and GWTL, with at most 0.25; and IHDT, with at most 0.25. As for SVGE, the enrichment ratio is at most 0.25.

As to FIMG, the enrichment ratio was at most 0.25.

Consider YCAS, for which the enrichment ratio is 0.465. Then GHWM, with at most 0.25; and EWSL, with at most 0.25; and NLYH, with at most 0.25. Then PIES, with at most 0.25; and FMMV, with at most 0.25; and TTFM, with at most 0.25. The same measure for KGFY: at most 0.25. Take EVST: the enrichment ratio was at most 0.25. Then ADCG, with 1.58; and YDDH, with at most 0.25; and KWKF, with at most 0.25. The same measure for WESC: at most 0.25. The same measure for PFTV: at most 0.25; for SMEP: at most 0.25. As to VGHQ, the enrichment ratio was at most 0.25. LWWV: the enrichment ratio was at most 0.25. Then RPGI, with at most 0.25. Then VEPA, with at most 0.25.

On to FAGI, for which the enrichment ratio is at most 0.25. The same measure for SCMY: 4.95; for HTRP: at most 0.25; for ADGY: at most 0.25. For the variant VCPH, the enrichment ratio was at most 0.25. The same measure for GRKW: at most 0.25; for IYQL: at most 0.25; for ISLY: at most 0.25. Then RIMP, with at most 0.25.

As to PVSC, the enrichment ratio is at most 0.25. Then VKNA, with at most 0.25; and TNVH, with at most 0.25; and FKRC, with at most 0.25.

Regarding TGFI, the enrichment ratio was at most 0.25.

Take TNAM: the enrichment ratio was found to be 15.7. Then IMDW, with at most 0.25. In the case of YILI, the enrichment ratio is 0.374. The same measure for THDG: at most 0.25; for FTGF: at most 0.25; for AKGM: at most 0.25. On to LKNR, for which the enrichment ratio was at most 0.25.

Consider MEYS, for which the enrichment ratio is 25.6.

Take MDNV: the enrichment ratio is at most 0.25. Then FIYN, with at most 0.25. The same measure for IEYQ: at most 0.25. The same measure for WHCW: at most 0.25; for ACII: 3.37; for LRMN: at most 0.25. For NNKL, the enrichment ratio was at most 0.25. The same measure for TRYE: at most 0.25. As for HGSM, the enrichment ratio came to 0.601. On to ICGE, for which the enrichment ratio is at most 0.25. Then LWFC, with at most 0.25. Then QIGH, with 14; and KTVN, with at most 0.25.

With SNDC, the enrichment ratio was at most 0.25. The same measure for RRES: at most 0.25; for QYFW: at most 0.25. The same measure for DDSS: at most 0.25; for FCQD: at most 0.25; for DPVF: at most 0.25. The same measure for YRSQ: at most 0.25; for IYPG: at most 0.25; for PNRT: at most 0.25.

Turning to QFFV, the enrichment ratio was at most 0.25. For the variant MGTT, the enrichment ratio is at most 0.25. The same measure for SCMR: 9.17; for KFWC: at most 0.25; for REHW: at most 0.25. The same measure for PKTI: at most 0.25; for HLTC: at most 0.25; for LASD: at most 0.25. Then SKLQ, with 10.1.

As to GDYM, the enrichment ratio is at most 0.25. The same measure for RSMA: at most 0.25; for TCIS: at most 0.25; for YKFP: at most 0.25. QDMW: the enrichment ratio was at most 0.25. The same measure for DSMD: at most 0.25; for TATN: 0.569; for RDRH: at most 0.25. Then SQCK, with 9.83; and NHLH, with at most 0.25. The same measure for HTTD: at most 0.25; for EVAM: at most 0.25; for DADN: at most 0.25. With ASKG, the enrichment ratio was at most 0.25.

Consider MVCF, for which the enrichment ratio was found to be 5.97. The same measure for RCQY: at most 0.25; for YSEI: at most 0.25. Consider INFA, for which the enrichment ratio is at most 0.25. Consider RCWQ, for which the enrichment ratio is at most 0.25. Then NQRE, with at most 0.25; and HSHE, with at most 0.25; and DQGH, with at most 0.25. The same measure for IQDD: at most 0.25; for QCAC: at most 0.25; for NVSM: at most 0.25. Then RTRI, with at most 0.25. As for VHKV, the enrichment ratio was at most 0.25. The same measure for NVGL: at most 0.25; for YRSS: at most 0.25; for KMIY: at most 0.25. The same measure for IATH: at most 0.25; for KLIN: at most 0.25. Then YKQT, with at most 0.25. With RLNN, the enrichment ratio was at most 0.25.

As for VANK, the enrichment ratio was at most 0.25. Then TFSQ, with 7.57. Then YSFD, with at most 0.25. The same measure for VQMN: at most 0.25; for EYAL: at most 0.25; for LNME: at most 0.25. PFAI: the enrichment ratio was at most 0.25.

As to AVTA, the enrichment ratio was 3.71. The same measure for WGYE: at most 0.25; for TLTK: at most 0.25; for LGWD: at most 0.25. For IKTT, the enrichment ratio was at most 0.25.

For GGNT, the enrichment ratio is at most 0.25. Then KACQ, with at most 0.25.
